# Reference: the supplement of paper PMC10037445
# In all, about 2,900 compounds were measured (“NF-kB SEAP reporter activity, fold change vs agonist alone”: median about 0.99, highest 2% from about 2.6 on). Some of the results follow.
# How the values were obtained:
# [1] = test system: RAW-Dual; assay: NF-kB SEAP reporter activity, fold change vs agonist alone; cytotoxicity flag (confluency mask): not cytotoxic; higher = enhanced NF-kB activity
# Summary of the method: (§1)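 After 50 nL of library stock was delivered by pin tool to RAW-Dual macrophages (50,000 cells/well, DMEM, 384-well plates), a PRR agonist was added 1 h later and the plates were kept at 37 °C, 5% CO2. Twenty hours later, IRF was read from supernatant by QuantiLuc luminescence and NF-κB by QuantiBlue absorbance at 620 nm. Reporter activity is stated as fold change over agonist-alone wells. Wells with IncuCyte confluency under 70% of agonist controls in both mask sets were counted as cytotoxic.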
# [2] = test system: RAW-Dual; assay: NF-kB SEAP reporter activity, fold change vs agonist alone; higher = enhanced NF-kB activity; conditions: cytotoxicity flag (confluency mask): not cytotoxic
# Summary of the method: as §1
# [3] = agonist: ODN 1826 (TLR9) 0.5 ug/mL
# [4] = agonist: Pam2CSK4 (TLR2/6) 0.1 ug/mL
# [5] = agonist: Pam3CSK4 (TLR2/1) 0.1 ug/mL
# [6] = library stock concentration (final ~1000-fold dilution): 10 mM, agonist: Imiquimod (TLR7) […]
# [7] = library stock concentration (final ~1000-fold dilution): 10 mM, agonist: MPLA (TLR4) […]
structure (smiles),measurement,setting,value
CN(C)CCOc1ccc(-c2nc(-c3ccncc3)c(-c3ccc4c(c3)CC/C4=N\O)[nH]2)cc1 (library stock concentration (final ~1000-fold dilution): 10 mM),NF-kB SEAP reporter activity,[1]; agonist: LPS (TLR4) 0.1 ug/mL,5
same,NF-kB SEAP reporter activity,[1]; [3],0.964
same,NF-kB SEAP reporter activity,[1]; [4],1.49
same,NF-kB SEAP reporter activity,[1]; [5],0.882
CN(C)CCOc1ccc(-c2nc(-c3ccncc3)c(-c3ccc4c(c3)CC/C4=N\O)[nH]2)cc1,NF-kB SEAP reporter activity,[2]; [6],0.946
same,NF-kB SEAP reporter activity,[2]; [7],1.02
COc1ccc(-c2oc3c(CC=C(C)C)c(OC4OC(CO)C(O)C(O)C4O)cc(O)c3c(=O)c2OC2OC(C)C(O)C(O)C2O)cc1 (stereo unspecified),NF-kB SEAP reporter activity,[2]; [6],0.89
same,NF-kB SEAP reporter activity,[2]; [7],1.13
COc1ccc(-c2oc3c(CC=C(C)C)c(OC4OC(CO)C(O)C(O)C4O)cc(O)c3c(=O)c2OC2OC(C)C(O)C(O)C2O)cc1 (stereo unspecified) (library stock concentration (final ~1000-fold dilution): 10 mM),NF-kB SEAP reporter activity,[1]; agonist: LPS (TLR4) 0.1 ug/mL,1.57
same,NF-kB SEAP reporter activity,[1]; [3],0.992
same,NF-kB SEAP reporter activity,[1]; [4],1.14
same,NF-kB SEAP reporter activity,[1]; [5],1.28
O=C1Cc2c([nH]c3ccc(Br)cc23)-c2ccccc2N1,NF-kB SEAP reporter activity,[2]; [6],1.42
same,NF-kB SEAP reporter activity,[2]; [7],1.61
O=C1Cc2c([nH]c3ccc(Br)cc23)-c2ccccc2N1 (library stock concentration (final ~1000-fold dilution): 10 mM),NF-kB SEAP reporter activity,[1]; agonist: LPS (TLR4) 0.1 ug/mL,1.86
same,NF-kB SEAP reporter activity,[1]; [3],1.85
same,NF-kB SEAP reporter activity,[1]; [4],1.54
same,NF-kB SEAP reporter activity,[1]; [5],1.65
CCc1c(O)cc(O)c(C(=O)c2ccc(OCCN3CCOCC3)c(OC)c2)c1CC(=O)N(CCOC)CCOC,NF-kB SEAP reporter activity,[2]; [6],0.27
same,NF-kB SEAP reporter activity,[2]; [7],0.417
CCc1c(O)cc(O)c(C(=O)c2ccc(OCCN3CCOCC3)c(OC)c2)c1CC(=O)N(CCOC)CCOC (library stock concentration (final ~1000-fold dilution): 10 mM),NF-kB SEAP reporter activity,[1]; agonist: LPS (TLR4) 0.1 ug/mL,0.245
same,NF-kB SEAP reporter activity,[1]; [3],0.328
same,NF-kB SEAP reporter activity,[1]; [4],0.239
same,NF-kB SEAP reporter activity,[1]; [5],0.221
Cc1coc2c1C(=O)C(=O)c1c-2ccc2c1CCCC2(C)C,NF-kB SEAP reporter activity,[2]; [6],0.798
same,NF-kB SEAP reporter activity,[2]; [7],0.857
Cc1coc2c1C(=O)C(=O)c1c-2ccc2c1CCCC2(C)C (library stock concentration (final ~1000-fold dilution): 10 mM),NF-kB SEAP reporter activity,[1]; agonist: LPS (TLR4) 0.1 ug/mL,0.59
same,NF-kB SEAP reporter activity,[1]; [3],0.814
same,NF-kB SEAP reporter activity,[1]; [4],0.784
same,NF-kB SEAP reporter activity,[1]; [5],1.03
C=CC(=O)NC1CCOCC1Nc1ncc2cc(-c3c(Cl)c(OC)cc(OC)c3Cl)ccc2n1 (stereo unspecified) (library stock concentration (final ~1000-fold dilution): 10 mM),NF-kB SEAP reporter activity,[1]; agonist: LPS (TLR4) 0.1 ug/mL,0.691
same,NF-kB SEAP reporter activity,[1]; [3],0.827
same,NF-kB SEAP reporter activity,[1]; [4],0.34
same,NF-kB SEAP reporter activity,[1]; [5],0.478
C=CC(=O)NC1CCOCC1Nc1ncc2cc(-c3c(Cl)c(OC)cc(OC)c3Cl)ccc2n1 (stereo unspecified),NF-kB SEAP reporter activity,[2]; [6],0.68
same,NF-kB SEAP reporter activity,[2]; [7],0.869
Cl.Cn1cc(C(=O)Nc2ccc3c(c2)OCCO3)c2ccccc2c1=O (library stock concentration (final ~1000-fold dilution): 10 mM),NF-kB SEAP reporter activity,[1]; agonist: LPS (TLR4) 0.1 ug/mL,2.21
same,NF-kB SEAP reporter activity,[1]; [3],1.48
same,NF-kB SEAP reporter activity,[1]; [4],1.09
same,NF-kB SEAP reporter activity,[1]; [5],1.29
Cl.Cn1cc(C(=O)Nc2ccc3c(c2)OCCO3)c2ccccc2c1=O,NF-kB SEAP reporter activity,[2]; [6],1.2
same,NF-kB SEAP reporter activity,[2]; [7],1.41
Cn1cc(Nc2nccc(N3CC4CCC(C3)N4C(=O)C3CC3(F)F)n2)cn1 (stereo unspecified),NF-kB SEAP reporter activity,[2]; [6],1.19
same,NF-kB SEAP reporter activity,[2]; [7],0.995
Cn1cc(Nc2nccc(N3CC4CCC(C3)N4C(=O)C3CC3(F)F)n2)cn1 (stereo unspecified) (library stock concentration (final ~1000-fold dilution): 10 mM),NF-kB SEAP reporter activity,[1]; agonist: LPS (TLR4) 0.1 ug/mL,0.973
same,NF-kB SEAP reporter activity,[1]; [3],1.3
same,NF-kB SEAP reporter activity,[1]; [4],1.69
same,NF-kB SEAP reporter activity,[1]; [5],2.02
Oc1cc2c(cc1O)CN(C(=S)NCCc1ccc(Cl)cc1)CCC2,NF-kB SEAP reporter activity,[2]; [6],1.19
same,NF-kB SEAP reporter activity,[2]; [7],0.993
Oc1cc2c(cc1O)CN(C(=S)NCCc1ccc(Cl)cc1)CCC2 (library stock concentration (final ~1000-fold dilution): 10 mM),NF-kB SEAP reporter activity,[1]; agonist: LPS (TLR4) 0.1 ug/mL,0.434
same,NF-kB SEAP reporter activity,[1]; [3],0.417
same,NF-kB SEAP reporter activity,[1]; [4],0.246
same,NF-kB SEAP reporter activity,[1]; [5],0.381
COc1ccc(NC(=O)c2ccc(C(=N)N(C)C)cc2)c(C(=O)Nc2ccc(Cl)cn2)c1 (library stock concentration (final ~1000-fold dilution): 10 mM),NF-kB SEAP reporter activity,[1]; agonist: LPS (TLR4) 0.1 ug/mL,1.02
same,NF-kB SEAP reporter activity,[1]; [3],0.92
same,NF-kB SEAP reporter activity,[1]; [4],0.94
same,NF-kB SEAP reporter activity,[1]; [5],0.875
COc1ccc(NC(=O)c2ccc(C(=N)N(C)C)cc2)c(C(=O)Nc2ccc(Cl)cn2)c1,NF-kB SEAP reporter activity,[2]; [7],1.09
CCS(=O)(=O)N1CCC(C(C)n2c(C)c(C(=O)NCc3c(OC)cc(C)[nH]c3=O)c3ccccc32)CC1 (stereo unspecified) (library stock concentration (final ~1000-fold dilution): 10 mM),NF-kB SEAP reporter activity,[1]; agonist: LPS (TLR4) 0.1 ug/mL,0.94
same,NF-kB SEAP reporter activity,[1]; [3],1.02
same,NF-kB SEAP reporter activity,[1]; [4],1.05
same,NF-kB SEAP reporter activity,[1]; [5],0.887
CCS(=O)(=O)N1CCC(C(C)n2c(C)c(C(=O)NCc3c(OC)cc(C)[nH]c3=O)c3ccccc32)CC1 (stereo unspecified),NF-kB SEAP reporter activity,[2]; [6],0.878
same,NF-kB SEAP reporter activity,[2]; [7],0.928
CCOc1ccc(CC2NC(=O)CCSSCC(C(=O)N3CCCC3C(=O)NC(CCCN)C(=O)NCC(N)=O)NC(=O)C(CC(N)=O)NC(=O)C(C(C)O)NC(=O)C(C(C)CC)NC2=O)cc1 (stereo unspecified),NF-kB SEAP reporter activity,"[2]; library stock concentration (final ~1000-fold dilution): 10 mM water, agonist: Imiquimod (TLR7) […]",0.981
same,NF-kB SEAP reporter activity,"[2]; library stock concentration (final ~1000-fold dilution): 10 mM water, agonist: MPLA (TLR4) […]",1.06
CCOc1ccc(CC2NC(=O)CCSSCC(C(=O)N3CCCC3C(=O)NC(CCCN)C(=O)NCC(N)=O)NC(=O)C(CC(N)=O)NC(=O)C(C(C)O)NC(=O)C(C(C)CC)NC2=O)cc1 (stereo unspecified) (library stock concentration (final ~1000-fold dilution): 10 mM water),NF-kB SEAP reporter activity,[1]; agonist: LPS (TLR4) 0.1 ug/mL,1.22
same,NF-kB SEAP reporter activity,[1]; [3],1.15
same,NF-kB SEAP reporter activity,[1]; [4],1.22
same,NF-kB SEAP reporter activity,[1]; [5],1.02
